Laboratory results from a collection of fitness landscapes (doi:10.1126/science.1257360).
The list shows a part of the results.

B1: PhoQ; a variant is named by its letters at X, in order, P23837 (parent)
chain: MKKLLRLFFPLSLRVRFLLATAAVVLVLSLAYGMVALIGYSVSFDKTTFRLLRGESNLFYTLAKWENNKLHVELPENIDKQSPTMTLIYDENGQLLWAQRDVPWLMKMIQPDWLKSNGFHEIEADVNDTSLLLSGDHSIQQQLQEVREDDDDAEMTHSVAVNVYPATSRMPKLTIVVVDTIPVELKSSYMVWSWFIYVLSANLLLVIPLLWVAAWWSLRPIEALAKEVRELEEHNRELLNPATTRELTSLVRNLNRLLKSERERYDKYRTTLTDLTHSLKTPLXXLQXXLRSLRSEKMSVSDAEPVMLEQISRISQQIGYYLHRASMRGGTLLSRELHPVAPLLDNLTSALNKVYQRKGVNISLDISPEISFVGEQNDFVEVMGNVLDNACKYCLEFVEISARQTDEHLYIVVEDDGPGIPLSKREVIFDRGQRVDTLRPGQGVGLAVAREITEQYEGKIVAGESMLGGARMEVIFGRQHSAPKDE

Variants of: B1
Test: enrichment ratio after two sorts for PhoP signalling (ratio (wild type AVST 3.29)); higher = more functional
Details: with PhoP (E. coli)

Row | Variant | enrichment ratio
1 | KGGA | ≤ 0.25
2 | WMYI | ≤ 0.25
3 | QWPK | ≤ 0.25
4 | TPII | ≤ 0.25
5 | HNMP | ≤ 0.25
6 | WYTN | ≤ 0.25
7 | VPVC | ≤ 0.25
8 | FKKN | ≤ 0.25
9 | TNHH | ≤ 0.25
10 | QKCS | ≤ 0.25
11 | QYLS | ≤ 0.25
12 | HYSL | ≤ 0.25
13 | NKHF | ≤ 0.25
14 | EKYN | ≤ 0.25
15 | LGQI | ≤ 0.25
16 | WVLF | ≤ 0.25
17 | FDER | ≤ 0.25
18 | MSYP | ≤ 0.25
19 | FIAI | ≤ 0.25
20 | DKQL | ≤ 0.25
21 | YFWH | ≤ 0.25
22 | RVYL | ≤ 0.25
23 | FKLQ | ≤ 0.25
24 | QQSI | 8.77

Row | Variant | enrichment ratio
25 | MINK | ≤ 0.25
26 | GTFR | ≤ 0.25
27 | SFQR | ≤ 0.25
28 | CYFL | ≤ 0.25
29 | RLKY | ≤ 0.25
30 | YIIH | ≤ 0.25
31 | HNFY | ≤ 0.25
32 | HKEV | ≤ 0.25
33 | WFQW | ≤ 0.25
34 | KGLD | ≤ 0.25
35 | MDYL | 1.6
36 | PYER | ≤ 0.25
37 | HEMS | 2.49
38 | TMEP | ≤ 0.25
39 | KNWS | ≤ 0.25
40 | PLMR | ≤ 0.25
41 | MYTK | ≤ 0.25
42 | KMMV | ≤ 0.25
43 | VVHG | ≤ 0.25
44 | FVDF | ≤ 0.25
45 | FKFD | ≤ 0.25
46 | QNGD | ≤ 0.25
47 | QLAI | ≤ 0.25
48 | WPML | ≤ 0.25

Row | Variant | enrichment ratio
49 | HMCW | ≤ 0.25
50 | QYYQ | ≤ 0.25
51 | IIFN | ≤ 0.25
52 | GFCR | ≤ 0.25
53 | APYE | ≤ 0.25
54 | IMEA | ≤ 0.25
55 | LSMM | 12.4
56 | EREF | ≤ 0.25
57 | GVTI | 4.7
58 | QPHP | ≤ 0.25
59 | IRWR | ≤ 0.25
60 | VGDD | ≤ 0.25
61 | GTRI | ≤ 0.25
62 | FIGT | ≤ 0.25
63 | TGVH | 1.88
64 | HNHS | ≤ 0.25
65 | WLMK | ≤ 0.25
66 | RVPD | ≤ 0.25
67 | YRMM | ≤ 0.25
68 | KNLF | ≤ 0.25
69 | ATII | 7.4
70 | YAVH | ≤ 0.25
71 | HVWL | ≤ 0.25
72 | YRYI | ≤ 0.25

Row | Variant | enrichment ratio
73 | QFRK | ≤ 0.25
74 | AERA | ≤ 0.25
75 | LEIF | ≤ 0.25
76 | IQQN | ≤ 0.25
77 | VFWK | ≤ 0.25
78 | TSHC | 10
79 | AHCE | ≤ 0.25
80 | DHTR | ≤ 0.25
81 | DISC | ≤ 0.25
82 | HFSY | ≤ 0.25
83 | TTTQ | 4.04
84 | VTNR | ≤ 0.25
85 | RIDS | ≤ 0.25
86 | VRPV | ≤ 0.25
87 | DPGE | ≤ 0.25
88 | YEWW | ≤ 0.25
89 | PWLT | ≤ 0.25
90 | WFVS | ≤ 0.25
91 | VTDQ | ≤ 0.25
92 | HIYY | ≤ 0.25
93 | AKLM | 12.4
94 | APLE | ≤ 0.25
95 | EHCL | ≤ 0.25
96 | QTYQ | 4.58

Row | Variant | enrichment ratio
97 | NASF | ≤ 0.25
98 | LPNL | ≤ 0.25
99 | IMAQ | ≤ 0.25
100 | YHEP | ≤ 0.25
101 | ILPA | ≤ 0.25
102 | TYIH | ≤ 0.25
103 | DMPP | ≤ 0.25
104 | GREC | ≤ 0.25
105 | DGAK | ≤ 0.25
106 | RYGV | ≤ 0.25
107 | NPHN | ≤ 0.25
108 | KALD | ≤ 0.25
109 | HDHR | ≤ 0.25
110 | PTDK | ≤ 0.25
111 | QEFQ | ≤ 0.25
112 | LSFF | 0.737
113 | WLRF | ≤ 0.25
114 | MDKF | ≤ 0.25
115 | RILH | ≤ 0.25
116 | LSND | ≤ 0.25
117 | GLAH | ≤ 0.25
118 | DQAI | 5.63
119 | FKQK | ≤ 0.25
120 | TTPA | ≤ 0.25

Row | Variant | enrichment ratio
121 | GEVS | 7.86
122 | GHLC | ≤ 0.25
123 | TFKM | ≤ 0.25
124 | QSTN | ≤ 0.25
125 | YYYH | ≤ 0.25
126 | NQHM | ≤ 0.25
127 | PGCT | ≤ 0.25
128 | RAWW | ≤ 0.25
129 | DIHY | ≤ 0.25
130 | TYHC | ≤ 0.25
131 | FIFY | ≤ 0.25
132 | RGGE | ≤ 0.25
133 | YREL | ≤ 0.25
134 | ETIY | ≤ 0.25
135 | GDGN | ≤ 0.25
136 | MPQR | ≤ 0.25
137 | NQQM | ≤ 0.25
138 | AQSQ | 1.5
139 | CALN | 65
140 | FIYM | ≤ 0.25
141 | YDHW | ≤ 0.25
142 | TLGN | 7.31
143 | GPNM | ≤ 0.25
144 | PTYF | ≤ 0.25

Row | Variant | enrichment ratio
145 | NYGK | ≤ 0.25
146 | YQGI | ≤ 0.25
147 | SQTA | 0.808
148 | QCST | 2.83
149 | SKKA | ≤ 0.25
150 | VDTE | ≤ 0.25
151 | HYQS | ≤ 0.25
152 | KPAD | ≤ 0.25
153 | IDHM | ≤ 0.25
154 | DACD | ≤ 0.25
155 | VYIW | ≤ 0.25
156 | KPHC | ≤ 0.25
157 | HSVC | ≤ 0.25
158 | KACP | ≤ 0.25
159 | FEQL | ≤ 0.25
160 | YQDR | ≤ 0.25
161 | ENAS | ≤ 0.25
162 | EGRG | ≤ 0.25
163 | PEEV | ≤ 0.25
164 | IHWE | ≤ 0.25
165 | SPYF | ≤ 0.25
166 | PKWK | ≤ 0.25
167 | QRWI | ≤ 0.25
168 | WYYT | ≤ 0.25

Row | Variant | enrichment ratio
169 | LHWD | ≤ 0.25
170 | YTNF | ≤ 0.25
171 | KCLQ | ≤ 0.25
172 | HGDQ | ≤ 0.25
173 | TICM | 0.46
174 | SSFQ | 3.15
175 | PLEY | ≤ 0.25
176 | QMNY | ≤ 0.25
177 | TRMG | ≤ 0.25
178 | SVRR | ≤ 0.25
179 | GAFD | ≤ 0.25
180 | PVCH | ≤ 0.25
181 | VNTC | ≤ 0.25
182 | VIDK | ≤ 0.25
183 | MPPQ | ≤ 0.25
184 | QVFK | ≤ 0.25
185 | QSPW | ≤ 0.25
186 | PFPF | ≤ 0.25
187 | AVHR | ≤ 0.25
188 | PILG | ≤ 0.25
189 | MQLI | 9.47
190 | ENHF | ≤ 0.25
191 | IRHD | ≤ 0.25
192 | KNCV | ≤ 0.25

Row | Variant | enrichment ratio
193 | IYIY | ≤ 0.25
194 | MHSK | ≤ 0.25
195 | HYFM | ≤ 0.25
196 | FIAK | ≤ 0.25
197 | ESYY | ≤ 0.25
198 | FGND | ≤ 0.25
199 | PFME | ≤ 0.25
200 | GSYK | ≤ 0.25
201 | YIKP | ≤ 0.25
202 | GWAA | ≤ 0.25
203 | RPCM | ≤ 0.25
204 | QFTN | ≤ 0.25
205 | DLKH | ≤ 0.25
206 | KRLN | ≤ 0.25
207 | KRVI | ≤ 0.25
208 | ATMN | ≤ 0.25
209 | LCKC | ≤ 0.25
210 | QLGC | ≤ 0.25
211 | MDPH | ≤ 0.25
212 | ERAN | ≤ 0.25
213 | HWHV | ≤ 0.25
214 | KGIK | ≤ 0.25
215 | GYCS | ≤ 0.25
216 | PHNC | ≤ 0.25

Row | Variant | enrichment ratio
217 | VNDS | ≤ 0.25
218 | TWMH | ≤ 0.25
219 | REGY | ≤ 0.25
220 | LPLR | ≤ 0.25
221 | ISCH | ≤ 0.25
222 | YLIQ | ≤ 0.25
223 | DIQI | ≤ 0.25
224 | TQIE | ≤ 0.25
225 | FHVR | ≤ 0.25
226 | MDVL | ≤ 0.25
227 | FRQN | ≤ 0.25
228 | DVSV | ≤ 0.25
229 | PREF | ≤ 0.25
230 | MHEI | ≤ 0.25
231 | WDML | ≤ 0.25
232 | TWMG | ≤ 0.25
233 | IVVA | ≤ 0.25
234 | HERN | ≤ 0.25
235 | RKPK | ≤ 0.25
236 | PNPV | ≤ 0.25
237 | VSIR | ≤ 0.25
238 | QYIK | ≤ 0.25
239 | DMVN | ≤ 0.25
240 | SVEM | ≤ 0.25

Row | Variant | enrichment ratio
241 | DWIK | ≤ 0.25
242 | LLSA | ≤ 0.25
243 | GKSF | ≤ 0.25
244 | ENGT | ≤ 0.25
245 | HWWW | ≤ 0.25
246 | YHTD | ≤ 0.25
247 | QLYS | ≤ 0.25
248 | TSAG | 6.45
249 | TFYW | ≤ 0.25
250 | YMHN | ≤ 0.25
251 | LPCE | ≤ 0.25
252 | LVII | ≤ 0.25
253 | FQAP | ≤ 0.25
254 | SFDP | ≤ 0.25
255 | MHVK | ≤ 0.25
256 | LRHI | ≤ 0.25
257 | NCRW | ≤ 0.25
258 | MCFY | 2.87
259 | TFAS | 2.34
260 | VDRC | ≤ 0.25
261 | MPKN | ≤ 0.25
262 | NAAI | ≤ 0.25
263 | RGAP | ≤ 0.25
264 | TNGC | 2.27

Row | Variant | enrichment ratio
265 | GIMW | ≤ 0.25
266 | ACRA | ≤ 0.25
267 | RESM | ≤ 0.25
268 | GSAS | ≤ 0.25
269 | NNEI | ≤ 0.25
270 | FCEG | ≤ 0.25
271 | ATNH | ≤ 0.25
272 | QNSN | ≤ 0.25
273 | AYLC | 0.263
274 | YDED | ≤ 0.25
275 | QKYY | ≤ 0.25
276 | AFWP | ≤ 0.25
277 | AMFD | ≤ 0.25
278 | DAEC | ≤ 0.25
279 | NHSW | ≤ 0.25
280 | FMTF | ≤ 0.25
281 | RAQG | 1.15
282 | ETFI | ≤ 0.25
283 | KNPP | ≤ 0.25
284 | GPNS | ≤ 0.25
285 | YHPV | ≤ 0.25
286 | FRPS | ≤ 0.25
287 | VATR | ≤ 0.25
288 | WMFN | ≤ 0.25

Row | Variant | enrichment ratio
289 | KMHD | ≤ 0.25
290 | KRAS | ≤ 0.25
291 | SKQW | ≤ 0.25
292 | YQSK | ≤ 0.25
293 | TFCR | ≤ 0.25
294 | IFSC | ≤ 0.25
295 | AEWT | 22.1
296 | SLWY | ≤ 0.25
297 | FPSH | ≤ 0.25
298 | DGFV | ≤ 0.25
299 | PPQC | ≤ 0.25
300 | LEAD | ≤ 0.25
301 | FGFA | ≤ 0.25
302 | NENH | ≤ 0.25
303 | KYKP | ≤ 0.25
304 | VNSH | ≤ 0.25
305 | PWYV | ≤ 0.25
306 | YADV | ≤ 0.25
